Laboratory results: PMC4336329 (PLoS ONE, 2015)
Hit rate of the full screen: of about 310,000 compounds, about 2,200 (0.71%) showed an effect of 50% or more. The effect is printed as a negative number. The list shows a part of the results.

Each compound was assayed against human ether-à-go-go-related gene (hERG) potassium channel (human, UniProt Q12809) (assay: primary screen, population patch clamp on CHO cells stably expressing hERG).
human ether-à-go-go-related gene (hERG) potassium channel, sequence (Q12809 whole entry, looked up): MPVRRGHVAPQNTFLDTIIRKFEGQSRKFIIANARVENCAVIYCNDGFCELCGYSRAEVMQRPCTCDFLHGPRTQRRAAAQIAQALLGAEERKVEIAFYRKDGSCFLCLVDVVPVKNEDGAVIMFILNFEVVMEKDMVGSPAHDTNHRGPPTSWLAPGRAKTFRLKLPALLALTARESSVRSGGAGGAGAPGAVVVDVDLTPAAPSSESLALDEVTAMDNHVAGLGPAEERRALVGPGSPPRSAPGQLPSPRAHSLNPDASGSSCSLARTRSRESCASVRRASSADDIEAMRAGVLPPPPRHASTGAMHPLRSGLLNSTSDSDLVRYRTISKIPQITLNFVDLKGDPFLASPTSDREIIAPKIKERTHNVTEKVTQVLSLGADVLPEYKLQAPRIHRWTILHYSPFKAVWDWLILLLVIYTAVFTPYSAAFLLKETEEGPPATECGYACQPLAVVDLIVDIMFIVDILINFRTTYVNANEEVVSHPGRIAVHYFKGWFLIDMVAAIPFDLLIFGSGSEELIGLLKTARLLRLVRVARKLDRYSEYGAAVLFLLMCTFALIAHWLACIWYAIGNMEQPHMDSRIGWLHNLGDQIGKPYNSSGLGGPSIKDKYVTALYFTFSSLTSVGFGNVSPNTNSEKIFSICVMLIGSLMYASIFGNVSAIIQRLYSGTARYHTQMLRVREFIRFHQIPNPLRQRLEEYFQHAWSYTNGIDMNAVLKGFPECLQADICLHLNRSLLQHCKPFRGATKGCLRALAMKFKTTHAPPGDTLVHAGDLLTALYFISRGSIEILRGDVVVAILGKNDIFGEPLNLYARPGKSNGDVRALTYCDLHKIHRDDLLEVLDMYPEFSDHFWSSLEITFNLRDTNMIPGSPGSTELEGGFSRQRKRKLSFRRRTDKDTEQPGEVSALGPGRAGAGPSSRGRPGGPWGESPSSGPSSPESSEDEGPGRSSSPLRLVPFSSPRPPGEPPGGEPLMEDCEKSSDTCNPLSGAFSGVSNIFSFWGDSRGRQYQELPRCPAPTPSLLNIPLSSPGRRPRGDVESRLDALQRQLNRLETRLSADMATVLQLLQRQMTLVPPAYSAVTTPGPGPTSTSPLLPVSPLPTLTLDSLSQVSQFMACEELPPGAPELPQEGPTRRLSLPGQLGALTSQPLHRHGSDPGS

| SMILES | hERG current change (%, negative = inhibition) at 1uM |
| --- | --- |
| O=C(NC(=S)Nc1ccccc1N1CCOCC1)c1cccs1 | 4.94% |
| CC(C)n1c(-c2ccccc2F)n[nH]c1=S | 4.41% |
| CCN1CCN(c2c(Cl)cccc2NC(=O)c2ccc(Br)o2)CC1 | -59.3% |
| CC(=O)Nc1ccccc1OCc1nnc(-c2ccccc2Cl)o1 | 17.2% |
| Cn1nc(-c2ccccc2)cc1NC(=O)c1cccs1 | 11.9% |
| CCOc1ccc(N(CC(=O)NCc2ccc(F)cc2)C(=O)c2snc(C(N)=O)c2N)cc1 | 15.2% |
| Cc1cc(C)c(S(=O)(=O)N2CCOC2CNC(=O)C(=O)NCCN(C)C)c(C)c1 (stereo not shown) | 18.5% |
| Cc1ccc(CSc2nnc(-c3cccs3)n2C)cc1 | 4.05% |
| O=C(c1ccc(C#Cc2ccccc2)o1)N1CCN(c2ccccn2)CC1 | 8.85% |
| CC(=O)Nc1ccc(S(=O)(=O)N2CCC(C(=O)NCc3cccnc3)CC2)cc1 | 17.9% |
| COc1ccc(CNC2=CC(=O)CC(C)(C)C2)cc1 | 2.26% |
| Cc1c(C)n(CCc2ccccc2)c2ncnc(NCCO)c12 | -3.9% |
| COc1ccc(NC(=O)C2c3cc(OC)c(OC)cc3C(=O)N(C)C2c2cccnc2)cc1OC (stereo not shown) | 11.8% |
| O=C1NC(Cc2c[nH]c3ccccc23)C(=O)N1Cc1ccc(CN2C(=O)NC(Cc3c[nH]c4ccccc34)C2=O)cc1 (stereo not shown) | 13.9% |
| Cc1ncc([N+](=O)[O-])n1CC(C)O (stereo not shown) | 12.7% |
| C/C(=N/N=C(/N)SCc1ccccc1)C(C)(C)C.Cl | 13.4% |
| CC(=O)C1=C(C)NC(SCc2ccc(C#N)cc2)=C(C#N)C1c1ccco1 (stereo not shown) | -4.3% |
| O=C(Cc1ccc(Cl)cc1)NCC(=O)N1CCN(Cc2ccccc2)CC1 | -5.46% |
| Cc1ccc(N/N=C/c2cccnc2)cc1.Cl | -2.1% |
| Cc1cc(OCc2cc(C(=O)N(C)CCCN3CCOCC3)no2)cc(C)c1Cl | -8.26% |
| Cc1cc(=O)[nH]c2ccc(S(=O)(=O)Nc3ccccc3)cc12 | 15.4% |
| CC(C)NC(=O)CSc1nncn1-c1ccccc1 | 13.2% |

| SMILES | hERG current change (%, negative = inhibition) at 1uM |
| --- | --- |
| O=C(c1ccc(F)cc1)N1CCN2C(=O)c3ccccc3C12c1ccc(Cl)cc1 (stereo not shown) | 5.84% |
| Cc1nc(SCc2ccccc2)c([N+](=O)[O-])[nH]1 | 19.1% |
| Cn1cnnc1SCC(=O)c1ccc2c(c1)OCCO2 | 0.814% |
| CCNc1ccc(S(N)(=O)=O)cc1[N+](=O)[O-] | -0.632% |
| CCOC(=O)c1c(NC(=O)CSc2nnc(CNc3ccc(C)cc3C)o2)sc(C)c1C | 15.6% |
| CC1CN(c2nnc(NC(=O)c3ccccc3)s2)CC(C)O1 (stereo not shown) | 46.9% |
| O=C(O)c1ccc(S(=O)(=O)c2ccccc2)cc1 | 11.5% |
| CC(COc1ccccc1)N1CCC(CO)(CCc2ccccc2)CC1 (stereo not shown) | -84.8% |
| Cc1ccc(CNC(=O)C2CC3Cn4c(nc5ccccc54)C3N2C)o1 (stereo not shown) | 11.7% |
| COc1ccccc1C(=O)Nc1ccc2c(C)cc(=O)oc2c1 | 16.7% |
| CCCC1(CCC)NC(=O)N(CC(=O)c2cc(C)n(-c3ccc4c(c3)OCO4)c2C)C1=O | 4.19% |
| Cc1cc(F)ccc1S(=O)(=O)Nc1ccccc1C(=O)NCc1cccnc1 | 9.07% |
| COc1ccc(OC)c(NC(=O)COc2ccc(Br)cc2)c1 | 12.9% |
| COc1ccc(-c2cc(C(F)(F)F)nc(SCc3cccc(C(=O)O)c3)n2)cc1 | 11.5% |
| COc1cccc(N2C(=NC(=O)c3ccccc3)SC3CS(=O)(=O)CC32)c1 (stereo not shown) | 10.4% |
| N/C(Cc1nc(-c2ccc(Br)cc2)cs1)=N\O | 11.7% |
| COc1ccc(CCN(C)C2CCCN(C(=O)c3ccnn3C)C2)cc1OC (stereo not shown) | -4.79% |
| Cc1ccc(C)n1-c1ccc(-c2nnco2)cc1 | 9.77% |
| Cc1ccc(C(=O)N2CC(C)CC(C)C2)cc1NC1=NC2CS(=O)(=O)CC2S1 (stereo not shown) | 17.8% |
| O=C(Cc1c(F)cccc1Cl)c1ccc(O)cc1O | 8.6% |
| Cc1cc(C)cc(OCC(=O)Nc2ccc(F)cc2)c1 | 18.5% |
| COc1ccc2c(c1)c(C(=O)CN1CCN(c3ccccc3)CC1)c(C)n2C | 2.94% |

| SMILES | hERG current change (%, negative = inhibition) at 1uM |
| --- | --- |
| CCC(=O)N1CCN(c2nc3ccc(Br)cc3s2)CC1 | -15% |
| COc1ccccc1NS(=O)(=O)c1cc(NC(=O)C2CC2)ccc1N1CCOCC1 | 19.5% |
| COc1cc(CNCCc2ccccc2)ccc1OCC(=O)NC(C)(C)C.Cl | 12.8% |
| Cc1noc(C(=O)Nc2c(C)n(C)n(-c3ccccc3)c2=O)c1Cl | 8.06% |
| COc1ccc(/C(C)=N/NC(=O)CNC(=O)c2cccnc2)cc1 | 13.9% |
| CCSc1nnc(NC(=O)CSc2nc3c(c(=O)n2C)SC(C)C3)s1 (stereo not shown) | 0.407% |
| O=C(COC(=O)c1ccc(Br)cc1)NC(=O)NCc1ccccc1 | -3.36% |
| O=C(c1ccco1)N(CC1CCCO1)c1nc(-c2ccccc2)cs1 (stereo not shown) | 16.4% |
| C/C=C/c1ccc(OCC(=O)Nc2cc(Cl)ccc2-n2cncn2)c(OC)c1 | -6.53% |
| Cc1ccccc1NC(=O)c1cccc(N2C(=O)C3C4CC(C(Br)C4Br)C3C2=O)c1 (stereo not shown) | 13.9% |
| O=C(CN1C(=O)NC2(CCCc3ccccc32)C1=O)N1CCc2ccccc2C1 (stereo not shown) | 11.6% |
| O=C(Cc1ccc(Br)cc1)NCCCn1ccnc1 | 10.7% |
| O=C(O)CCCCCNc1nc2ncn(Cc3ccccc3)c2c(=O)[nH]1 | 10.5% |
| Cc1ccc(Cn2nc(C(=O)Nc3ccc(Br)cc3)cc2C)cc1 | 14.1% |
| Cc1cc(C)cc(NC(=O)CSc2n[nH]c(-c3cccnc3)n2)c1 | 12.3% |
| CCN(CC)CCN(C(=O)Cn1nnc(-c2ccc(C)o2)n1)C(C(=O)NC(C)(C)C)c1cccs1 (stereo not shown) | -0.0216% |
| Cc1ccc(NS(=O)(=O)c2ccc(NC(=O)c3ccccc3C(=O)O)cc2)c(C)c1 | 14.2% |
| CC(C)NC(=S)NC(=O)/C=C/c1cccc2ccccc12 | 10.7% |
| COc1ccccc1C1=NNC(=Nc2cccc(S(=O)(=O)N(C)C)c2)SC1 | 5.93% |
| COc1ccc(OCC(=O)Nc2cccc(NC(=O)c3ccco3)c2)cc1 | 9.36% |
| CCOc1c(C(N)=O)c(-c2ccccc2)c2c(=O)[nH]c3ccccc3n12 | 10.4% |
| CCN(CC)S(=O)(=O)c1ccc(-c2nnco2)cc1 | 4.13% |

| SMILES | hERG current change (%, negative = inhibition) at 1uM |
| --- | --- |
| COc1ccc(CCN(C)C(=O)CN2C(=O)c3ccccc3S2(=O)=O)cc1OC | 7.03% |
| Cc1cc(C)cc(NC(=S)N2CCN(S(C)(=O)=O)CC2)c1 | 12.9% |
| O=C(c1ccc(-c2ccc([N+](=O)[O-])cc2)o1)N1CCCC(C(F)(F)F)C1 (stereo not shown) | -0.108% |
| Cc1cnc2ncc3sccc3c2c1 | 14.3% |
| Cc1ccc(-n2ncc(C(=O)NCC3CCN(C4CCCC4)C3)c2C2CCN(C(=O)OC(C)(C)C)CC2)cc1C (stereo not shown) | 4.77% |
| Cc1cc(NC(=O)COC(=O)C2CC(=O)N(c3ccc(Br)cc3)C2)no1 (stereo not shown) | 8.28% |
| O=C(C1CCN(S(=O)(=O)c2ccc(Br)s2)CC1)N1CCc2ccccc21 | -10% |
| CCCn1c(SCC(=O)NC2CC2)nnc1-c1cccs1 | 12.2% |
| Cc1ccc2nc3c(cc2c1)CC1(C(=O)N(C)C(=O)N(C)C1=O)C1CCCCN31 (stereo not shown) | 12.5% |
| Cc1ccc(S(=O)(=O)N(CC(=O)Nc2ccccc2C(=O)O)c2ccccc2)cc1 | 18% |
| COC(=O)CC1C(=O)NCCN1C(=O)c1ccc([N+](=O)[O-])cc1 (stereo not shown) | 2.7% |
| COc1ccccc1N1CCN(S(=O)(=O)c2cc(C)sc2C)CC1 | 3.78% |
| CCC1(C)Cc2ccccc2-c2c1c(=O)n(Cc1ccccc1)c1nnnn21 (stereo not shown) | 8.32% |
| Cc1ccc(S(=O)(=O)Nc2ccccc2C(=O)N2CCCCC2)cc1 | -3.86% |
| O=C(Cn1ccc(C(F)(F)F)n1)N/N=C/c1ccc2c(c1)OCO2 | 5.51% |
| Cn1c(=O)[nH]c(=O)c2c1nc(NCCCO)n2CCOc1ccccc1 | -20.9% |
| O=C(O)c1nn2c(C(F)(F)F)cc(-c3cccs3)nc2c1Cl | 10.6% |
| O=C(Cn1ncc2c(=O)oc3ccccc3c21)NCCN1CCN(c2ccccc2F)CC1 | 7.3% |
| CCOC(=O)c1c(NC(=O)COC(=O)Cc2ccccc2[N+](=O)[O-])sc(C(=O)N(C)C)c1C | 3.78% |
| CCCC(C)c1nnc(NC(=O)CN2C(=O)c3ccccc3C2=O)s1 (stereo not shown) | 9.34% |
| O=C(/C=C/c1cccs1)c1cc(Cl)ccc1OC(=O)N1CCOCC1 | 2.77% |
| CCC(=O)OCC(=O)c1c(N)n(Cc2ccccc2)c(=O)n(C)c1=O | 5.82% |
